Measured values published in paper PMC6919601, “Identification of Plasmodium dipeptidyl aminopeptidase allosteric inhibitors by high throughput screening” (PLoS ONE, 2019).
Among all 110,000 compounds or so, about 230 (0.21%) showed an effect of 50% or more. The list shows a part of the results.
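Also: 30 min substrate incubation versus DMSO and 10 µM JCP410 controls.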

What follows are molecules tested against DPAP1 (Plasmodium falciparum, UniProt Q8IIJ9) (assay: primary screen, percent inhibition; read by cleavage of a fluorogenic dipeptide substrate; higher = more effect of the substance).
Chain of DPAP1 (Q8IIJ9 whole entry, looked up): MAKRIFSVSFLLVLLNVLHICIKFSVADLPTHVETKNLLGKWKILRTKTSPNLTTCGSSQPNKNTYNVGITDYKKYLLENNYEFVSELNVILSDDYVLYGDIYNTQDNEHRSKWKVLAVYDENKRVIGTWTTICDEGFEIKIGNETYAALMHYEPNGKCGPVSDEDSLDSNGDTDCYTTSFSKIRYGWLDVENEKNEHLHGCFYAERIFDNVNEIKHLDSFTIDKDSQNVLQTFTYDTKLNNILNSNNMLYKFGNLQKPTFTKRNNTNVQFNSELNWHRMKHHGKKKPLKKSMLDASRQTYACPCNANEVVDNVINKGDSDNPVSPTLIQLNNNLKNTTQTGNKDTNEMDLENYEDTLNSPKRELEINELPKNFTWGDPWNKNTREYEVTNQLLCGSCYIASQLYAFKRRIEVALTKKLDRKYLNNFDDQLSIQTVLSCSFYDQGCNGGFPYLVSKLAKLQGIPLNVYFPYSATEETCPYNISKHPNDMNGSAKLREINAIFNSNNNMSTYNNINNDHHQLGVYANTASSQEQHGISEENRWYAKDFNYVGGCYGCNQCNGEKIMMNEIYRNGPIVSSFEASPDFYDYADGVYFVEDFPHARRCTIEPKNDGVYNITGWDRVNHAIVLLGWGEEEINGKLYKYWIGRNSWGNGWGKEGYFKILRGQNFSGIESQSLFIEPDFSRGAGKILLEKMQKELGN
Parameters: species or system P. falciparum D10 trophozoite lysates; single well
With `O=C(CN1CCN(Cc2ccc(Cl)cc2)C1=O)NCc1ccc2c(c1)OCO2` the “% Inhibition @ 10 uM” value was 3.07%. With `Cc1ccc(N(CC(=O)N2CCC(C)CC2)S(=O)(=O)c2ccccc2)c(C)c1` the “% Inhibition @ 10 uM” value was 5.85%. In the case of `Cc1nn(-c2nc3ccccc3s2)c2c1C(c1cccc(F)c1F)CC(=O)N2` (stereo not drawn), the “% Inhibition @ 10 uM” value is reported as -2.88%. With `Cc1ccc(C)c(NC(=O)CN(c2ccc(C)c(Cl)c2)S(C)(=O)=O)c1` the “% Inhibition @ 10 uM” value was 4.47%. For `O=C(CSc1nc(-c2ccccc2)nc2cc(=O)[nH]n12)N1CCCC1`, the “% Inhibition @ 10 uM” value was 4.97%. In the case of `O=C(Nc1cnn(Cc2ccc(F)cc2)c1)c1cc(Cl)ccc1Cl`, the “% Inhibition @ 10 uM” value is reported as -4.89%. `Cn1ncc(Cl)c1C(=O)Nc1cnn(Cc2ccc(Cl)cc2Cl)c1` was tested, and the “% Inhibition @ 10 uM” value was 0.385%. In the case of `Cc1ccc(C2N(c3nccs3)C(=O)C3CCCN32)cc1` (stereo not drawn), the “% Inhibition @ 10 uM” value is reported as 1.23%. For `Cc1ccc2oc(C(=O)Nc3nc4ccc(S(C)(=O)=O)cc4s3)cc(=O)c2c1`, the “% Inhibition @ 10 uM” value was -5.08%. In the case of `COC1CCCCC1NCCc1ccccc1` (stereo not drawn), the “% Inhibition @ 10 uM” value is reported as 3.44%. With `CCO/C(O)=C1/C(C)=NC2=C(C(=O)CCC2)C1c1ccc([N+](=O)[O-])cc1` (stereo not drawn) the “% Inhibition @ 10 uM” value was 1.62%. For `CCOCCn1c(CN2CCc3ccccc3C2)nc2c1c(=O)n(C)c(=O)n2C`, the “% Inhibition @ 10 uM” value was -3.23%. In the case of `COc1ccc(-c2cc(O)cc3sc(=O)oc23)cc1`, the “% Inhibition @ 10 uM” value is reported as 0.968%. In the case of `CC(C)(C)C(=O)Nc1nnc(COc2ccc(C(C)(C)C)cc2)s1`, the “% Inhibition @ 10 uM” value is reported as 1.58%. For `CC(=O)c1ccc(OCC(C)C)c(CN2CCCCC2)c1`, the “% Inhibition @ 10 uM” value was 2.24%. With `Cc1cc(C)c2c(-n3cccc3)c(C(=O)NCCN3CCCCCC3)sc2n1` the “% Inhibition @ 10 uM” value was 3.87%. With `c1csc(-c2csc(-c3nc(-c4cccs4)cs3)n2)c1` the “% Inhibition @ 10 uM” value was -2.65%. In the case of `CC(=O)c1nn(-c2ccc(Br)cc2)cc1C(=O)c1ccco1`, the “% Inhibition @ 10 uM” value is reported as -3.72%. In the case of `c1ccc(OCCCCn2ccnc2)cc1`, the “% Inhibition @ 10 uM” value is reported as 2.76%. For `Cc1ccc(S(=O)(=O)N(C)c2ccc(C(=O)Nc3ccc4c(c3)OCO4)cc2)cc1`, the “% Inhibition @ 10 uM” value was -4.62%. `CCOC(=O)N1CCC(Nc2ccc3[nH]ncc3c2)CC1` was tested, and the “% Inhibition @ 10 uM” value was 1.43%. For `c1ccc(-c2ncc3c(ccc4ccccc43)n2)cc1`, the “% Inhibition @ 10 uM” value was 1.44%. In the case of `Cc1cccnc1NC(=O)C(C)c1ccc(CC(C)C)cc1` (stereo not drawn), the “% Inhibition @ 10 uM” value is reported as -3.03%. With `Cc1ccc(CNCc2c(C(=O)O)n(Cc3ccccc3F)c3ccccc23)cc1` the “% Inhibition @ 10 uM” value was 22.5%. `CN(CCC#N)S(=O)(=O)c1ccc(-c2ccc([N+](=O)[O-])cc2)cc1` was tested, and the “% Inhibition @ 10 uM” value was -3.48%. With `Cc1ccc(-c2cc(C(=O)NCCCN3CCOCC3)c3ccccc3n2)c(C)c1` the “% Inhibition @ 10 uM” value was -1.1%. For `NS(=O)(=O)c1ccc(NC2=NC(=O)/C(=C/c3cc(O)ccc3Br)S2)cc1`, the “% Inhibition @ 10 uM” value was 10.1%. `CCOC(=O)N1CCN(Cc2ccc(F)c(F)c2)CC1` was tested, and the “% Inhibition @ 10 uM” value was 1.62%. In the case of `Cc1cccc(NC(=O)CN2CC(c3ccccc3)CC2=O)c1` (stereo not drawn), the “% Inhibition @ 10 uM” value is reported as -5.1%. `COc1ccc(C(=O)Nc2cccc(NC(=O)c3ccc(OC)cc3)n2)cc1` was tested, and the “% Inhibition @ 10 uM” value was 0.605%. For `COc1ccc(C(=O)Nc2ccccc2C(=O)Nc2ccc(OC)cc2OC)cc1`, the “% Inhibition @ 10 uM” value was 4.98%. In the case of `COc1ccc(C2=NOC(C(=O)NCCCn3ccnc3)C2)cc1` (stereo not drawn), the “% Inhibition @ 10 uM” value is reported as -3.67%. In the case of `Cc1ccsc1/C=C1/C(=O)N=C(N)N1C`, the “% Inhibition @ 10 uM” value is reported as 4.18%. With `Cn1ncc(Cl)c1C(=O)NCc1cc2ccccc2[nH]1` the “% Inhibition @ 10 uM” value was -0.68%. In the case of `Cc1ccc(-n2c(S)nnc2COc2cccc(C)c2)cc1`, the “% Inhibition @ 10 uM” value is reported as 10.4%. For `CCOC(=O)C1=C(c2ccccc2)OC(N)=C(C#N)C1c1ccc(Br)s1` (stereo not drawn), the “% Inhibition @ 10 uM” value was 3.19%. In the case of `O=C(NCCC1=CCCCC1)C1CCN(S(=O)(=O)N2CCC3(CC2)OCCO3)CC1`, the “% Inhibition @ 10 uM” value is reported as -2.99%. In the case of `CC(=O)N(C)C1(C(=O)NC2CCCC2)CCCCC1`, the “% Inhibition @ 10 uM” value is reported as 3.05%. For `COc1ccc(C(=O)NC(C)c2cc(OC)c(OC)cc2Br)cc1` (stereo not drawn), the “% Inhibition @ 10 uM” value was 1.83%. `CCc1ccc(CNCc2c(C(=O)O)n(C)c3ccccc23)cc1` was tested, and the “% Inhibition @ 10 uM” value was -5.75%. `CCOc1ccccc1C1C2=C(O)CCCC2=Nc2nc(SCC)nn21` (stereo not drawn) was tested, and the “% Inhibition @ 10 uM” value was -5.49%. In the case of `CNC(=O)C1CCN(c2nnc(C)c3c(C)n(-c4ccc(C)cc4)nc23)CC1`, the “% Inhibition @ 10 uM” value is reported as -5.51%. With `CCOC(=O)/C(C#N)=C(\C)c1ccc([N+](=O)[O-])cc1` the “% Inhibition @ 10 uM” value was 1.54%. For `COc1ccc(/C=C2\SC(N3CCN(Cc4ccccc4)CC3)=NC2=O)c(OC)c1`, the “% Inhibition @ 10 uM” value was 0.147%. In the case of `COc1ccc(C2=NN(C(=O)CCC(=O)O)C(c3ccc(OC)c(OC)c3)C2)cc1` (stereo not drawn), the “% Inhibition @ 10 uM” value is reported as -6.2%. With `COc1ccc(-c2cc(C)no2)cc1S(=O)(=O)NCCSCc1ccco1` the “% Inhibition @ 10 uM” value was 4.55%. In the case of `CCOc1cc(/C=C2/NC(=O)NC2=O)ccc1OCc1ccc(Cl)cc1Cl`, the “% Inhibition @ 10 uM” value is reported as -3.06%. `COc1cccc(-n2nnc3c(=O)n(CC(=O)NCc4ccccc4)cnc32)c1` was tested, and the “% Inhibition @ 10 uM” value was -3.94%. With `COCCn1c(=N)c(C(=O)NCc2ccccc2)cc2c(=O)n3cccc(C)c3nc21` the “% Inhibition @ 10 uM” value was -1.47%. With `CC1CCN(C(=O)CN(Cc2ccccc2)S(=O)(=O)c2cc(Cl)ccc2Cl)CC1` the “% Inhibition @ 10 uM” value was 3.79%. For `CCC(C)N(CCCNC(=O)c1nn(C)c2c1CS(=O)(=O)c1ccccc1-2)Cc1ccco1` (stereo not drawn), the “% Inhibition @ 10 uM” value was -3.8%.
